In all, about 33,000 sequences were measured (“E-score (-0.5 to 0.5)”: median about -0.041, highest 2% from about 0.37 on). This is one part of the list.
target: T1, Ecm22 (UniProt Q05958); assay: PBM E-score (8-mer binding enrichment) (E-score (-0.5 to 0.5)); higher = stronger / more preferred TF binding; most listed sequences are background and not binding sites; settings: protein concentration: 200 nM; construct: GST-full length
T1 sequence: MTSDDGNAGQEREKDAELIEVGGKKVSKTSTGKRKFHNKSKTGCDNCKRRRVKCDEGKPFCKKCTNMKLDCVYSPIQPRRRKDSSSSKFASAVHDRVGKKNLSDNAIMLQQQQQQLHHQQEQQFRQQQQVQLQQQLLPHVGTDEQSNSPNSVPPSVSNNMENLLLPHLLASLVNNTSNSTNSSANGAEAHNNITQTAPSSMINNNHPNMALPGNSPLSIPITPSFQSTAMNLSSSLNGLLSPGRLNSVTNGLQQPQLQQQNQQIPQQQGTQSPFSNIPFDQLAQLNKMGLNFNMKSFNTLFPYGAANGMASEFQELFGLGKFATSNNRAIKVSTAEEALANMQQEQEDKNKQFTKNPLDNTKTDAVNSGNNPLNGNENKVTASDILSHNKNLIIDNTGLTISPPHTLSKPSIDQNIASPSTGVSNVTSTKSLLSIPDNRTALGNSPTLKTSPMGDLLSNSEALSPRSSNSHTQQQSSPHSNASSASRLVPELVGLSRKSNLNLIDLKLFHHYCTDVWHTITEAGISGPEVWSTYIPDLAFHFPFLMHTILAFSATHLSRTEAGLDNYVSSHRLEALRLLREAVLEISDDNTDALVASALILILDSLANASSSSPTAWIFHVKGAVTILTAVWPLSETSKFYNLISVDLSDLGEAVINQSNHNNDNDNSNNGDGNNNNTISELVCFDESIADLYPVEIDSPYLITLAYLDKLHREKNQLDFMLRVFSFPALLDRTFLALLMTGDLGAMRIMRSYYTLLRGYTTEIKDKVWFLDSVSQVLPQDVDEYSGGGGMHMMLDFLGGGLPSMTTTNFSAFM
Procedure, shortened: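 Universal all-10-mer Agilent arrays, double-stranded by primer extension on fresh or once-stripped slides, were probed with about 100-200 nM GST-tagged yeast transcription factors made by PURExpress. Fluorescent anti-GST detected bound protein, and masliner normalised the scans. E-scores from the Universal PBM Analysis Suite were given to each ungapped eight-base word pooled with its reverse complement.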

Row | Sequence | PBM E-score
1 | GTGGAGTA | 0.0107
2 | CATTAATA | 0.0103
3 | ACCCAGTA | -0.111
4 | AACCGTGG | -0.277
5 | CCGCGCGC | 0.0774
6 | CTGCTGCC | -0.217
7 | ATCTCTTA | 0.196
8 | GGTAGACA | -0.207
9 | AGAGTCCC | -0.189
10 | ATGTGCAC | -0.204
11 | AAGCAGCT | -0.112
12 | AAAGAGTC | -0.109
13 | ATTTACAG | -0.0365
14 | AAGTGTCT | -0.0703
15 | ACAGATTC | -0.121
16 | GCACCGCA | 0.0935
17 | GTACATAA | 0.145
18 | AGGTGAAG | -0.0236
19 | TGTCGACA | 0.00949
20 | GCCGCCCC | -0.14
21 | AAGGAATT | -0.126
22 | ACTGCAGC | -0.108

Row | Sequence | PBM E-score
23 | ATCGGCAA | -0.0457
24 | ACCGCCAC | -0.0833
25 | CATCAGCC | -0.121
26 | AACGCGGG | 0.171
27 | AATGAAAC | -2e-05
28 | CACCGAGG | 0.0851
29 | GATCAAGA | -0.0614
30 | ACCCTGGG | -0.0333
31 | ACCTCCTG | -0.15
32 | AAACTCGG | 0.161
33 | TACCTTCA | 0.0669
34 | GCGATCCA | 0.226
35 | AGACGCCA | -0.132
36 | CCAGCCAG | -0.247
37 | AGATATTA | 0.204
38 | AGGCTATA | -0.169
39 | GGACTGGA | -0.323
40 | TAAGAGTA | 0.0107
41 | CTGCATTA | -0.0864
42 | CCAGAGGC | -0.124
43 | CATGATCA | -0.0879
44 | CGACGCCC | 0.164

Row | Sequence | PBM E-score
45 | CCGCTTAA | 0.291
46 | ACCTGGGG | -0.237
47 | AGTGCATA | 0.148
48 | ATCTCCCC | -0.143
49 | ACAAATTA | 0.0865
50 | ATGGGTCA | -0.171
51 | CCATCCCA | -0.287
52 | AATGTGTC | -0.0434
53 | TGACACAA | -0.188
54 | CGTTCTCA | 0.254
55 | CCCTTAGA | -0.23
56 | CAACCATC | -0.0236
57 | GGTTCGAC | 0.0422
58 | AACGGGCC | 0.101
59 | CAGAGAGC | -0.179
60 | ACTACGCA | -0.15
61 | AGAATTAC | 0.209
62 | GCTAGAAA | -0.138
63 | CCAGACCA | -0.173
64 | CTCACACA | -0.12
65 | GAATGTCA | -0.221
66 | AAGAATTG | 0.077

Row | Sequence | PBM E-score
67 | GATGCGCC | -0.163
68 | CAACTGGA | -0.256
69 | CTATGCAC | -0.164
70 | GACACACC | -0.0167
71 | TGAGCCAA | -0.169
72 | ATGGGAGC | 0.0541
73 | TAGCCATA | 0.0728
74 | ACGCTAGC | -0.199
75 | ATTTTTGC | 0.131
76 | GCGTGAGA | -0.0852
77 | ATTGTCGG | 0.181
78 | AACCTTTC | -0.0282
79 | CGGAAAAG | 0.169
80 | CCACAACC | 0.0425
81 | CTAGAGCC | -0.308
82 | AACCAGCA | -0.296
83 | AAGAGAGT | -0.162
84 | ACTGGTGA | -0.326
85 | CCCCCCCA | -0.413
86 | GATGCATA | 0.0515

Reference: the supplement of paper PMC3334620
